Assay results published in the supplement of paper PMC3334620.
Whole data set: some 33,000 sequences, median “E-score (-0.5 to 0.5)” near -0.016, cut for the highest 2% near 0.32. The list shows a part of the results.

target: T1, Stp1 (UniProt B3LFK1); assay: PBM E-score (8-mer binding enrichment) (E-score (-0.5 to 0.5)); higher = stronger / more preferred TF binding; most listed sequences are background and not binding sites; settings: protein concentration: 200 nM; construct: GST-full length
T1 sequence: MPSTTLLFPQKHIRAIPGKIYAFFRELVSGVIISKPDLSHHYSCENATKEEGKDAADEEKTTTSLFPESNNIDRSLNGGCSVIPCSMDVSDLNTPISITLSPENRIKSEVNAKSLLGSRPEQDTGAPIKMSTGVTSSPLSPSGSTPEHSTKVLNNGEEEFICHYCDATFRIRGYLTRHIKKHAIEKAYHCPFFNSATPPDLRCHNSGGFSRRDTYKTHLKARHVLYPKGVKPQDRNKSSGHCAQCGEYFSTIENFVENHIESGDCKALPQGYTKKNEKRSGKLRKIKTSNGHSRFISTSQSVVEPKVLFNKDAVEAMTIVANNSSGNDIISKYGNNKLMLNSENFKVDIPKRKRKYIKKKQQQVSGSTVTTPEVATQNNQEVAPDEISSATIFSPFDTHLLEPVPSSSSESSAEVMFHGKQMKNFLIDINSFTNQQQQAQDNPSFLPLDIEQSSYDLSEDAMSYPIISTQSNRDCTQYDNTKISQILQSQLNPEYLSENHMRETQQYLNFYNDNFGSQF
Method in brief: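 The E-score, a modified Wilcoxon-Mann-Whitney statistic, was computed by the Universal PBM Analysis Suite for every ungapped eight-base word pooled with its reverse complement. Scans behind it were normalised with masliner after bound GST-tagged yeast transcription factors were detected with fluorescent anti-GST. The proteins, at about 100-200 nM, had been applied to universal all-10-mer Agilent arrays made double-stranded by primer extension.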

First: CCTCACGA
Second: AGCAAAGC
The “PBM E-score” value of the first is higher: 0.0853 for the first, -0.105 for the second.

Compared with TAACATTA, GAGCCTAC is lower in “PBM E-score” value: 0.0624 for the first, -0.0639 for the second.

Going from ATGAAACG to CCCCGTAA, the “PBM E-score” value falls from 0.128 to -0.0389.

First: ATTATTGA
Second: CCAGCCAC
The “PBM E-score” value of the first is higher: 0.103 for the first, 0.0299 for the second.

Compared with AAATGTTG, TACATGGA is lower in “PBM E-score” value: -0.0281 for the first, -0.239 for the second.

Going from AGAATGCT to GAAAAGTC, the “PBM E-score” value falls from 0.0521 to -0.0853.

Compared with AAGAGAGG, ACCCGTTG is lower in “PBM E-score” value: 0.0404 for the first, -0.0746 for the second.

Compared with ACCGGAAC, AGACGTTG is lower in “PBM E-score” value: -0.0464 for the first, -0.0721 for the second.

Compared with GGCGCTAA, CCTCTCAG is lower in “PBM E-score” value: 0.37 for the first, -0.276 for the second.

Going from GACTCCGC to CTTTGCAA, the “PBM E-score” value rises from -0.0827 to 0.0807.

Compared with AAATCGAT, ACTTTAGG is lower in “PBM E-score” value: 0.0462 for the first, -0.217 for the second.

First: ACCTAGAG
Second: GTCGGGCA
The “PBM E-score” value of the first is higher: -0.171 for the first, -0.252 for the second.

Compared with AGTAGTTC, AGGGTTGC is lower in “PBM E-score” value: 0.0875 for the first, -0.295 for the second.

First: CAAGCGCC
Second: CACAGGAC
The “PBM E-score” value of the first is higher: 0.219 for the first, -0.125 for the second.

Going from ATAATATA to ATCACGTG, the “PBM E-score” value falls from 0.255 to 0.181.

Compared with GAGTGCGC, CGCTCCAG is lower in “PBM E-score” value: -0.0794 for the first, -0.104 for the second.

Compared with AATTAATA, ACAACAAC is lower in “PBM E-score” value: 0.304 for the first, 0.0598 for the second.

Compared with ACTCAAAT, GACTTAAC is lower in “PBM E-score” value: 0.125 for the first, -0.259 for the second.

Compared with ACGCTGTG, ATATGATA is higher in “PBM E-score” value: 0.0617 for the first, 0.274 for the second.

Going from GGGAGGTA to TCAGAGCA, the “PBM E-score” value falls from -0.145 to -0.253.

Compared with AAATTCCA, CATCAGGA is lower in “PBM E-score” value: 0.24 for the first, 0.154 for the second.

Going from AGCCGCTA to AGGTGTCG, the “PBM E-score” value falls from 0.119 to -0.0942.

Compared with CTGGCCCA, CAACTTAC is higher in “PBM E-score” value: -0.0956 for the first, 0.0481 for the second.

Compared with AGACACCC, AATCAAGC is higher in “PBM E-score” value: -0.206 for the first, -0.0362 for the second.

First: AGTGTCTG
Second: ACTGATGC
The “PBM E-score” value of the first is lower: -0.115 for the first, -0.0227 for the second.

Compared with CCTCTCTC, CATAATCA is higher in “PBM E-score” value: -0.339 for the first, 0.169 for the second.

First: GAGGGTGC
Second: AAGTTGAT
The “PBM E-score” value of the first is lower: -0.141 for the first, 0.0828 for the second.

Going from CCGGCTTC to TCGTGCAA, the “PBM E-score” value rises from -0.0259 to 0.288.

Going from CGCATGAC to AAGCTTCG, the “PBM E-score” value falls from 0.0062 to -0.124.

Going from ACCCGGTC to ACTTATTC, the “PBM E-score” value rises from -0.323 to 0.00886.

First: TGACCTAA
Second: CTTTCCGC
The “PBM E-score” value of the first is higher: 0.0803 for the first, 0.0296 for the second.

First: AGGTGACT
Second: CATTAGCA
The “PBM E-score” value of the first is lower: -0.0726 for the first, 0.0176 for the second.

Compared with AGGGGGCC, CCACATTC is higher in “PBM E-score” value: -0.227 for the first, -0.17 for the second.

First: GCAGATCC
Second: CCCAATAG
The “PBM E-score” value of the first is higher: -0.048 for the first, -0.0717 for the second.

Going from AGCGTTTC to GGTAGGTA, the “PBM E-score” value falls from -0.0071 to -0.264.

Compared with GCGTCCGA, CTAAGATC is higher in “PBM E-score” value: -0.142 for the first, -0.0434 for the second.

First: AATAATTA
Second: ATGGGCGG
The “PBM E-score” value of the first is higher: 0.197 for the first, -0.0281 for the second.

Going from AAGTATGG to ATTAGTAC, the “PBM E-score” value rises from -0.0353 to 0.0504.

Compared with ATCCTGTG, CCAGTCGG is lower in “PBM E-score” value: -0.105 for the first, -0.144 for the second.

Compared with GATAGACA, GAATGTAA is higher in “PBM E-score” value: -0.0511 for the first, 0.147 for the second.

Compared with CGCGCTAA, CGAGCACA is lower in “PBM E-score” value: 0.227 for the first, 0.0835 for the second.

Compared with AACGGAAT, ACAGCCGA is lower in “PBM E-score” value: 0.228 for the first, -0.0659 for the second.

Compared with AGCCTTTG, ACGTAGCA is lower in “PBM E-score” value: -0.0934 for the first, -0.105 for the second.

First: CGCCTTCC
Second: AAGGTTAA
The “PBM E-score” value of the first is higher: 0.206 for the first, -0.0262 for the second.

First: CGACGACC
Second: GGCGGATA
The “PBM E-score” value of the first is lower: -0.121 for the first, 0.0304 for the second.

Compared with AAACATTC, AGCCGGAA is higher in “PBM E-score” value: -0.077 for the first, -0.0322 for the second.

Compared with AGATTAGG, CGTGCGTA is higher in “PBM E-score” value: 0.0214 for the first, 0.18 for the second.

Going from GCCAACCA to ATTCCAAC, the “PBM E-score” value rises from -0.0582 to 0.074.

Compared with GCCCGGCC, ATAGCTTC is higher in “PBM E-score” value: -0.184 for the first, -0.113 for the second.

Going from GATACTAC to CGGTAATA, the “PBM E-score” value falls from 0.0826 to 0.0511.

First: CTCGGGTC
Second: AGGAGGCC
The “PBM E-score” value of the first is higher: -0.078 for the first, -0.197 for the second.

First: GAATATAA
Second: AGTAGGCA
The “PBM E-score” value of the first is lower: -0.0429 for the first, 0.225 for the second.

Compared with ACGACTCG, TCACGACA is higher in “PBM E-score” value: -0.171 for the first, 0.0423 for the second.

Going from CCTCTCCG to AGTGACAA, the “PBM E-score” value falls from -0.0745 to -0.132.

Compared with CCCAAAGC, TTACGAAA is higher in “PBM E-score” value: -0.151 for the first, 0.091 for the second.

Compared with AACTATTG, AAGCCATT is lower in “PBM E-score” value: 0.129 for the first, 0.0834 for the second.

Going from AGTAACCC to CGATATCG, the “PBM E-score” value rises from -0.173 to 0.059.

Going from CCCTCAAC to CAGGTAAC, the “PBM E-score” value falls from -0.0619 to -0.249.

First: CGTATCTA
Second: ACAGAAAC
The “PBM E-score” value of the first is lower: 0.0863 for the first, 0.22 for the second.

Going from GAAACCTC to AGGAGTGC, the “PBM E-score” value rises from -0.167 to -0.00186.

First: AGATGAGG
Second: GGTGCCGA
The “PBM E-score” value of the first is lower: -0.192 for the first, 0.288 for the second.

First: CTAGAAAC
Second: ACGGTCGG
The “PBM E-score” value of the first is lower: -0.0852 for the first, 0.0266 for the second.

Going from TGATCGCA to AAGAAAGA, the “PBM E-score” value rises from -0.15 to -0.0298.

First: AATGCCCT
Second: AGCTCTCG
The “PBM E-score” value of the first is higher: 0.212 for the first, -0.245 for the second.

Going from ATCTGACA to CCATGTAG, the “PBM E-score” value rises from -0.171 to -0.0141.

Going from CGTAGTAC to AGGGGAAG, the “PBM E-score” value falls from 0.0489 to -0.273.

First: CCTGTGTC
Second: GATCGGGA
The “PBM E-score” value of the first is higher: -0.215 for the first, -0.275 for the second.

Going from CTAAATAG to AGTCAATG, the “PBM E-score” value falls from 0.11 to -0.168.

Compared with ATATACAC, AACAACGG is higher in “PBM E-score” value: -0.00026 for the first, 0.182 for the second.

Compared with AAAGGGGT, CCTACTTC is higher in “PBM E-score” value: -0.245 for the first, -0.0244 for the second.

Compared with CTGCATCA, CCGCTCAA is higher in “PBM E-score” value: 0.0593 for the first, 0.135 for the second.

Going from AGACACTG to GCCTCCGA, the “PBM E-score” value rises from -0.0839 to -0.0504.

First: ATCAGCGC
Second: CGACGTGA
The “PBM E-score” value of the first is higher: 0.102 for the first, -0.0134 for the second.

Compared with ATCTCAAG, AGGCTTGA is lower in “PBM E-score” value: -0.0821 for the first, -0.161 for the second.

First: ATAAGGCG
Second: CGGTCAAA
The “PBM E-score” value of the first is higher: 0.365 for the first, 0.149 for the second.

Compared with GGAGGAAC, AGCTCAAA is higher in “PBM E-score” value: -0.222 for the first, 0.0552 for the second.

First: CAAGACTC
Second: CATCGCGA
The “PBM E-score” value of the first is lower: 0.0544 for the first, 0.0657 for the second.

First: CCGGTCAA
Second: CGGCACCC
The “PBM E-score” value of the first is lower: -0.0349 for the first, 0.338 for the second.

Compared with CCTCAGTA, AATCATTA is higher in “PBM E-score” value: -0.244 for the first, 0.0799 for the second.

Going from CCAGTTCA to GAGGATAC, the “PBM E-score” value falls from 0.0872 to -0.0295.

Going from ACCAGCCG to ACTTGAAT, the “PBM E-score” value rises from -0.0724 to 0.0207.

First: CGACCTCC
Second: CGTAGTCA
The “PBM E-score” value of the first is higher: -0.155 for the first, -0.185 for the second.

Going from TACAGAAA to CAGGTGGC, the “PBM E-score” value falls from 0.212 to 0.00875.

First: ATAGTTGC
Second: ATGGCGAA
The “PBM E-score” value of the first is lower: -0.0822 for the first, 0.139 for the second.

Going from ATGCAGAG to ACCCCCTC, the “PBM E-score” value falls from -0.18 to -0.468.

Going from CCATGGTC to GACAACTC, the “PBM E-score” value rises from -0.0484 to 0.0102.
